The values below come from publication PMC5892938.

This is one part of the list. At the low end of the ranking the order means little.

The target of this assay is GST-SBP-SLBP (stem-loop binding protein) (UniProt Q14493). Kind of assay: targeted RNA Bind-n-Seq.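 Note: DESeq read counts versus GST-SBP nonspecific binding control pulldown.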 Conditions: RBNS binding buffer: 25 mM Tris pH 7.5, 150 mM KCl, 3 mM MgCl2, 0.1% Tween, 0.5 mg/mL BSA, 1 mM DTT; 27 nM protein, 750 pM RNA pool; temperature not stated; high values mean tight binding.
For the sequence “GGUCACGUCUCAAUCAACUCAUCCUCAGGAGUUUUCUCCUGUAAAUUCAACAGCUCGCAGUCAAG”, the binding signal (log2 fold change) worked out at 0.161.
Turning to “GGUCACGUCUCAAUCAACUCACACGAGGGGGGGAAAACCCCUUUGCCCUCAUUUUCAACAGCUCGCAGUCAAG”, the binding signal (log2 fold change) is -0.286.
Turning to “GGUCACGUCUCAAUCAACUCUAUCGCAGGAGUUUUCUCCUGGUUAUUCAACAGCUCGCAGUCAAG”, the binding signal (log2 fold change) was -0.244.
The result for “GGUCACGUCUCAAUCAACUCAAUAGAGGGGGGGAAAACCCCUUUACCCUCCUAAUCAACAGCUCGCAGUCAAG” reads -0.165.
The figure for “GGUCACGUCUCAAUCAACUCUUCGUCAGGAGUUUUCUCCUGCAAAUUCAACAGCUCGCAGUCAAG” is 0.0309.
For the sequence “GGUCACGUCUCAAUCAACUCAACUCCAGGAGUUUUCUCCUGUAUAUUCAACAGCUCGCAGUCAAG”, the binding signal (log2 fold change) stood at 0.145.
The result for “GGUCACGUCUCAAUCAACUCUUUCGCCAGGGAAAUCCCUGGGUAUCUCAACAGCUCGCAGUCAAG” reads -0.176; that for “GGUCACGUCUCAAUCAACUCUAUCCCAGGAGUUUACUCCUGUAUACUCAACAGCUCGCAGUCAAG”, 0.0393.
The figure for “GGUCACGUCUCAAUCAACUCUACUCCCAGGGAAAACCCUGGCUUUUUCAACAGCUCGCAGUCAAG” is -0.361; for “GGUCACGUCUCAAUCAACUCAAUUUCCAGGGAAAGCCCUGGCUAUCUCAACAGCUCGCAGUCAAG” it is -0.0258.
As for “GGUCACGUCUCAAUCAACUCAUUCUCAGGAGUUUGCUCCUGUUUUUUCAACAGCUCGCAGUCAAG”, the binding signal (log2 fold change) was -0.086.
Consider “GGUCACGUCUCAAUCAACUCUUUUCCCAGGGAAAACCCUGGCUUAUUCAACAGCUCGCAGUCAAG”, for which the binding signal (log2 fold change) amounted to 0.0191.
With “GGUCACGUCUCAAUCAACUCAUCUCCAGGAGUUUUCUCCUGCAAUCUCAACAGCUCGCAGUCAAG”, the binding signal (log2 fold change) is -0.05.
Regarding “GGUCACGUCUCAAUCAACUCUUAGGAGGGGGGGAAAACCCCUUUACCCUCACAUUCAACAGCUCGCAGUCAAG”, the binding signal (log2 fold change) stood at 0.129.
The result for “GGUCACGUCUCAAUCAACUCAACUCCAGGAGUUUUCUCCUGUUAUGUCAACAGCUCGCAGUCAAG” reads -0.0565; that for “GGUCACGUCUCAAUCAACUCCUAAGAGGGGGGGAAAACCCCUUUACCCUCCAGAUCAACAGCUCGCAGUCAAG”, -0.337.
The figure for “GGUCACGUCUCAAUCAACUCUACUCCAGGAGUUUCCUCCUGUUAAUUCAACAGCUCGCAGUCAAG” is -0.0691; for “GGUCACGUCUCAAUCAACUCUAUUCCAGGAGUUUUCUCCUGUUAACUCAACAGCUCGCAGUCAAG” it is -0.0435.
With “GGUCACGUCUCAAUCAACUCUACUUCCAGGGAAAUCCCUGGUUAAUUCAACAGCUCGCAGUCAAG”, the binding signal (log2 fold change) is -0.0672.
The figure for “GGUCACGUCUCAAUCAACUCUUCUUCAGGAGUUUACUCCUGUUAUCUCAACAGCUCGCAGUCAAG” is -0.0413; for “GGUCACGUCUCAAUCAACUCAACUCCCAGGGAAAGCCCUGGUUAUUUCAACAGCUCGCAGUCAAG” it is -0.245; for “GGUCACGUCUCAAUCAACUCAUACGAGGGGGGGAAAACCCCUUUACCCUCAUACUCAACAGCUCGCAGUCAAG” it is -0.147.
The figure for “GGUCACGUCUCAAUCAACUCUUAAGAGGGGGGGAAAACCCCUUUACCCUCACUAUCAACAGCUCGCAGUCAAG” is -0.228.
In the case of “GGUCACGUCUCAAUCAACUCAAUAGAGGGGGGGAAAACCCCUUUGCCCUCAUUUUCAACAGCUCGCAGUCAAG”, the binding signal (log2 fold change) came out at 0.0718.
Take “GGUCACGUCUCAAUCAACUCUCAAGAGGGGGGGAAAACCCCUUUGCCCUCCAUGUCAACAGCUCGCAGUCAAG”: the binding signal (log2 fold change) came to 0.411.
Take “GGUCACGUCUCAAUCAACUCAAUCCCAGGAGUUUCCUCCUGCAUUCUCAACAGCUCGCAGUCAAG”: the binding signal (log2 fold change) turned out to be 0.22.
The result for “GGUCACGUCUCAAUCAACUCUUCCGAGGGGGGGAAAACCCCUUUACCCUCAAUUUCAACAGCUCGCAGUCAAG” reads -0.179; that for “GGUCACGUCUCAAUCAACUCUUCGUCCAGGGAAACCCCUGGUAUUCUCAACAGCUCGCAGUCAAG”, -0.0723; that for “GGUCACGUCUCAAUCAACUCAUUCUCAGGAGUUUCCUCCUGCUUUCUCAACAGCUCGCAGUCAAG”, 0.054.
Consider “GGUCACGUCUCAAUCAACUCUUCUUCCAGGGAAAACCCUGGCAUGUUCAACAGCUCGCAGUCAAG”, for which the binding signal (log2 fold change) was -0.0286.
The figure for “GGUCACGUCUCAAUCAACUCAACUCCAGGAGUUUACUCCUGCUUACUCAACAGCUCGCAGUCAAG” is 0.152.
The figure for “GGUCACGUCUCAAUCAACUCAUUCUCAGGAGUUUCCUCCUGUAUUCUCAACAGCUCGCAGUCAAG” is -0.0323; for “GGUCACGUCUCAAUCAACUCAUUCGAGGGGGGGAAAACCCCUUUACCCUCACAAUCAACAGCUCGCAGUCAAG” it is -0.236; for “GGUCACGUCUCAAUCAACUCUAUCCCAGGAGUUUCCUCCUGUUUACUCAACAGCUCGCAGUCAAG” it is 0.267.
The figure for “GGUCACGUCUCAAUCAACUCAUCCUCCAGGGAAACCCCUGGUAAAUUCAACAGCUCGCAGUCAAG” is -0.359; for “GGUCACGUCUCAAUCAACUCUUCUUCCAGGGAAAACCCUGGUAAACUCAACAGCUCGCAGUCAAG” it is 0.052; for “GGUCACGUCUCAAUCAACUCAUCUUCCAGGGAAAACCCUGGUAUACUCAACAGCUCGCAGUCAAG” it is 0.213.
